# Laboratory results taken from PMC4336329 (PLoS ONE, 2015).
# Among all 310,000 compounds or so, about 2,200 (0.71%) showed an effect of 50% or more. Effects have a minus sign here. Some of the results follow.
# Molecular target: human ether-à-go-go-related gene (hERG) potassium channel (human, UniProt Q12809)
# Test: primary screen, population patch clamp on CHO cells stably expressing hERG
# Sequence of human ether-à-go-go-related gene (hERG) potassium channel (Q12809 whole entry, looked up): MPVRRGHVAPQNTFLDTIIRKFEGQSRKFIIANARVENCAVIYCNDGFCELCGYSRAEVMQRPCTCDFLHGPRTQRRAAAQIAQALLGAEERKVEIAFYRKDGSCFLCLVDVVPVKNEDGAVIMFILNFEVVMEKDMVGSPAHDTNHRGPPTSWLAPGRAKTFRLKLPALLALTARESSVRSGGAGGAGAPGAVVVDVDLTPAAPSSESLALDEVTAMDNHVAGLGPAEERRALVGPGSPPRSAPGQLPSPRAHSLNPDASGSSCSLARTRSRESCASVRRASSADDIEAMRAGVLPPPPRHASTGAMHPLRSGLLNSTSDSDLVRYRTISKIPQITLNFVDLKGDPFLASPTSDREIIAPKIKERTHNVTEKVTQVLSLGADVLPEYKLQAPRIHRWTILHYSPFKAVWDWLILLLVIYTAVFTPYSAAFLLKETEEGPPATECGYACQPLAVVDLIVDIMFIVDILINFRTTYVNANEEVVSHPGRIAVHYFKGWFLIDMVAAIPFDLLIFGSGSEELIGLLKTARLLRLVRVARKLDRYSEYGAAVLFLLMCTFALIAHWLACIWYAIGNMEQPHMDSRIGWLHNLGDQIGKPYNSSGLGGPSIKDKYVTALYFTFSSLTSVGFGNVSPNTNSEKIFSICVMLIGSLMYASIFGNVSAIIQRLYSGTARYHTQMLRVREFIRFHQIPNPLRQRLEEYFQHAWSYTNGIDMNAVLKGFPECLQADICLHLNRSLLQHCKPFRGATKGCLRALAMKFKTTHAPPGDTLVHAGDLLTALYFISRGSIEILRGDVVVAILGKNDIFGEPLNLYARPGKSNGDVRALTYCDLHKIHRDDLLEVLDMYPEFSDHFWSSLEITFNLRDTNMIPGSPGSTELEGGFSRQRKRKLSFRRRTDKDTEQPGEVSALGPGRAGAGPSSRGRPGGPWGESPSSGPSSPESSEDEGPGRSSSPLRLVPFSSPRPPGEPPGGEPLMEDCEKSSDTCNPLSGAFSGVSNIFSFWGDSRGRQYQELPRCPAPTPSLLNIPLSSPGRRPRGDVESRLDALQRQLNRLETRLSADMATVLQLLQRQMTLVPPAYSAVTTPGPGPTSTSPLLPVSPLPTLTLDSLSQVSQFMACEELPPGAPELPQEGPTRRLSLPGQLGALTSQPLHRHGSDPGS
row,SMILES,"hERG current change (%, negative = inhibition) at 1uM"
1,COc1cc(OC)cc(N(C(=O)c2ccco2)C(C(=O)NC2CCCC2)c2ccc(N3CCOCC3)cc2)c1 (stereo not shown),5.53%
2,O=C(CSc1oc(-c2ccco2)nc1S(=O)(=O)c1ccccc1)NCC1CCCO1 (stereo not shown),8.01%
3,CCCCc1c(O)nc(SCC(=O)N2CCOCC2)n(-c2ccccc2OC)c1=O,10.4%
4,CNC(=O)C12CC3CC(CC(Cl)(C3)C1)C2,1.47%
5,CC(C)C[C@@H](CN(C)N=O)N(C[C@H](Cc1ccccc1)N(CCc1ccccc1)N=O)N=O.[Na+],0.384%
6,CCC(Sc1nnc(C)s1)C(=O)Nc1nccs1 (stereo not shown),9.94%
7,COc1ccccc1C(C#N)N1N=C(C)CC1c1ccccc1 (stereo not shown),12.4%
8,Cc1nc2ccccn2c1C(=O)CSc1ccccc1,8.06%
9,CC(C)(C)C1=CC(=Nc2ccccc2N)C=C(C(C)(C)C)C1=O,7.66%
10,CCN(Cc1ccccc1)Cc1ccc(OCc2ccccc2)cc1.O=C(O)C(=O)O,15%
11,O=C(CSc1nc(O)c(C(c2ccccc2)c2ccccc2)c(=O)[nH]1)N1CCOCC1,11.3%
12,O=C(NC(=S)Nc1ccc(CN2CCCCC2)cc1)c1cc2ccccc2o1,4.43%
13,Cn1c2c(c(=O)n(C)c1=O)CN(Cc1ccc3c(c1)OCO3)CN2,-3.2%
14,Cc1cc(/C=N/NC(N)=O)c(C)c(CO)c1,17.1%
15,COc1ccc(C)cc1NC(=O)CNC(c1ccccc1)c1ccc(C)cc1 (stereo not shown),14.1%
16,CCNC(=O)C1=C(O)c2sccc2N(C)S1(=O)=O,19.9%
17,Cl.O=C(/C=C/c1ccccc1)N1CCN(CC(O)COc2ccccc2)CC1 (stereo not shown),-48.2%
18,COc1ccc2cc(C(=O)C3CCCN(C(=O)c4ccnn4C)C3)ccc2c1 (stereo not shown),-8.49%
19,CC1Cc2ccccc2N1C(=O)CSc1ncccc1C(=O)O (stereo not shown),21.7%
20,O=C(Cc1ccccc1[N+](=O)[O-])NCCSCc1c(F)cccc1Cl,16.4%
21,Cc1n[nH]c(C)c1S(=O)(=O)N(C)Cc1ccco1,15.9%
22,COC(=O)NCc1ccc(Cl)c(Cl)c1,11.3%
23,O=S1(=O)CC=C(CSc2nc3ccccc3[nH]2)C1,13.7%

row,SMILES,"hERG current change (%, negative = inhibition) at 1uM"
1,O=[N+]([O-])c1ccc(/C=N/Nc2nc(N3CCCC3)nc(N3CCCC3)n2)o1,0.571%
2,CC(=O)c1ccc(N2CCN(S(=O)(=O)c3cn(C)cn3)CC2)cc1,16.7%
3,CCOCCn1c(SCC)nc2c1c(=O)[nH]c(=O)n2C,3.84%
4,Cc1nnc(C)n1/N=C/c1cccs1,13.5%
5,CNc1cc(C(F)(F)F)nc(-c2ccccn2)n1,18.7%
6,CCOC(=O)Nc1ccc2c(c1)N(C(=O)CN1CCN(CCO)CC1)c1ccccc1CC2.Cl,12.3%
7,O=C(NC(=S)N1CCCCC1)C12CC3CC(CC(C3)C1)C2,20%
8,CC(C)S(=O)(=O)c1csc(NC(=O)Nc2ccc(Cl)cc2)c1Cl,0.19%
9,COc1ccc(-c2c(C)oc3c(CN4CCCCC4C)c(O)ccc3c2=O)cc1 (stereo not shown),9%
10,CCOC(=O)N1CCC(NC(=O)CCCN2C(=O)CSc3ncccc32)CC1,10.2%
11,Clc1ccc(SCCCCN2CCNCC2)cc1.O=C(O)C(=O)O,-8.4%
12,Cc1ccc(N2C(=O)C(Cl)=C(Nc3c(C)n(C)n(-c4ccccc4)c3=O)C2=O)cc1,1.61%
13,O=C(Nc1cccc(C(=O)O)c1)Nc1ccc2c(c1)OCO2,11.4%
14,CCN(CC)C(=O)Oc1ccc(NC(=O)N2CCOCC2)cc1,13.8%
15,COCc1cc(C)nc2sc(C(=O)Nc3nccs3)c(N)c12,5.09%
16,O=C1N(c2ccccc2)CCN1c1ccccc1,25.8%
17,O=C(/C=C/c1ccccc1)Nc1ncn[nH]1,9.47%
18,CCOc1c2ccc(C(=O)NCc3ccc(C)cc3)cc2nn1CC,9.58%
19,CCOC(=O)C1CCN(c2c(NCCCN3CCN(Cc4ccccc4)CC3)c(=O)c2=O)CC1,14.3%
20,COc1ccc(NC(=S)/N=C(\N)Nc2nc(C)c3ccccc3n2)cc1,7.11%
21,C/C(Cl)=C\Cn1c(NCCCn2ccnc2)nc2c1c(=O)n(C)c(=O)n2C,-0.552%
22,COc1ccccc1N1C(=O)S/C(=C\c2cc(C)n(C)c2C)C1=O,16.8%
23,O=C(Cc1c(F)cccc1Cl)N/N=C/c1cccs1,11.4%

row,SMILES,"hERG current change (%, negative = inhibition) at 1uM"
1,CCOc1ccc(S(=O)(=O)N2CCCC(C(=O)N3CCOCC3)C2)cc1 (stereo not shown),1.36%
2,CCn1c(CCC(=O)O)nc2cc(S(=O)(=O)N(C)C)ccc21,13.6%
3,Cc1nc(-c2ccc(S(=O)(=O)NCC3CCN(C(=O)OC(C)(C)C)CC3)s2)cs1,10.1%
4,S=C(Nc1ccc(Cl)cc1Cl)N1CCN(c2ccccn2)CC1,12.7%
5,CC(C)C(=O)NC(=S)Nc1ccccc1C(F)(F)F,11.6%
6,CC(C)OC(=O)c1cc(=O)[nH]c2ccccc12,10.5%
7,CC(C(=O)NCCc1nc2ccccc2[nH]1)n1cc([N+](=O)[O-])cn1 (stereo not shown),11.7%
8,O=C1CCC(C(=O)Nc2ccccc2N2CCCC2)=NN1,4.67%
9,COC(=O)Cn1c(=NC(=O)CSCC(=O)NC2CCCCC2)sc2cc(OC)ccc21,11.6%
10,O=S(CCc1ccncc1)Cc1ccccc1 (stereo not shown),7.98%
11,CCOC(=O)Cn1cnc2scc(-c3ccc(C)c(C)c3)c2c1=O,10.8%
12,Cc1cccc(NC(=O)Cc2noc3ccccc23)c1,10.6%
13,O=C(NCC1(O)CCCCC1)C1CCC(=O)N(Cc2cccc(C(F)(F)F)c2)C1 (stereo not shown),10.7%
14,COc1ccc(CN2C(=O)C(Cc3ccccc3)Nc3ncnc(N4CCN(c5ccccc5)CC4)c32)cc1.O=C(O)C(F)(F)F (stereo not shown),15.4%
15,Cc1ccc(NC(=O)CNC(=O)CC23CC4CC(CC(C4)C2)C3)c(O)c1,-4.2%
16,CCOP(=O)(OCC)C(Nc1ccc(C(=O)O)cc1)c1ccccc1 (stereo not shown),2.13%
17,Cn1c(SCCN2CCOCC2)nc2sc3c(c2c1=O)CCCC3,9.15%
18,CCn1c(C(=O)N2CCC(C(=O)NCc3ccc(OC)cc3)CC2)cc2sccc21,-8.95%
19,COc1ccccc1N(CCC#N)C(=O)CSc1ccc2c(c1)OCCO2,-6.85%
20,Cc1cc(NC(=O)COC(=O)C2CC(=O)N(c3ccccc3)C2)no1 (stereo not shown),15.8%
21,O=C(CSc1ccc2ccccc2n1)Nc1nsc(-c2ccc(Cl)cc2)n1,-4.42%
22,O=C(NCc1cccnc1)C(=O)NCC1OCCCN1S(=O)(=O)c1ccc(Cl)cc1 (stereo not shown),3.57%
23,Oc1ccc(/C=N/NC(=S)Nc2cccnc2)cc1,4.26%

row,SMILES,"hERG current change (%, negative = inhibition) at 1uM"
1,N#C/C(=C\c1cccs1)C(=O)N1CCOCC1,14.8%
2,O=C(O)COc1ccccc1/C=N/NC(=O)c1ccc(F)cc1,1.34%
3,O=c1[nH]c(=O)n(CCc2ccc(F)cc2)c(O)c1/C=N/N1CCCCC1,11.7%
4,O=C(Nc1ccc(Cl)cc1)c1ccc2snnc2c1,14.7%
5,COc1ccccc1NC(=O)Nc1ccc(C(=O)N2CCCCC2)cc1,2.91%
6,Cc1onc(-c2ccccc2)c1CNS(=O)(=O)c1cccc(Br)c1,6.22%
7,O=C(O)c1cccc(O)c1O,8.42%
8,CCOC(=O)C1=NN(c2ccc(C)cc2)C2(S1)SC(C(C)=O)=C(C)N2c1ccccc1 (stereo not shown),8.85%
9,COc1ccccc1OCC(=O)NCc1ccco1,-5.2%
10,CCC(C)(C)NC(=O)C(c1ccc(F)cc1)N(Cc1cccc(OC)c1)C(=O)c1cnccn1 (stereo not shown),13.8%
11,Cc1cc(C)c(C(=O)COC(=O)C2CCN(c3ccc(C(F)(F)F)cn3)CC2)c(C)c1,3.26%
12,Cc1ccn(C)c(=N)c1,17.6%
13,O=C(c1ccc(Cl)cc1)C1CCCN(Cc2ccc3c(c2)OCCO3)C1 (stereo not shown),-17.2%
14,COCCNC(=O)CSc1nc2ccc(N3CCOCC3)cc2c(=O)n1Cc1ccc(OC)cc1,-17%
15,Cc1ccc(C)c(S(=O)(=O)NCC(=O)Nc2sc3c(c2C(N)=O)CCC(C)C3)c1 (stereo not shown),11%
16,COC(=O)CN1C(=O)COc2ccc(S(=O)(=O)N3CCCC3)cc21,10.2%
17,Cc1c(C=C2C(=O)c3ccccc3C2=O)cc(C#N)n1C,12.8%
18,COc1cc(C(=O)NCC(c2cccnc2)N2CCN(C)CC2)cc(OC)c1OC (stereo not shown),17.4%
19,Cc1ccccc1S(=O)Cc1ccc(C(=O)NC2CC2)o1 (stereo not shown),-1.13%
20,NC(=O)CC(NC(=O)c1ccccc1)c1ccc(NC2CCCC2)c([N+](=O)[O-])c1 (stereo not shown),6.23%
21,C#CCNc1c2c(nc3ncnn13)CC(C)CC2 (stereo not shown),7.52%
22,CCN1CCN(C(=S)Nc2ccc(Cl)cc2Cl)CC1,16.4%
